# Data: the supplement of paper PMC12067093, “Discovery and optimisation of a covalent ligand for TRIM25 and its application to targeted protein ubiquitination” (Chemical Science, 2025)
# About 21,000 targets were measured; listed, in parts, are those with the largest changes and a random draw of the rest.
# Compound: Cc1cc(ccc1-c1ccccc1)C(=O)N1CCCN(CC1)C(=O)CCl [compound 10]
# Assay: probe-labelled cysteine peptide fold change vs DMSO (competition) (log2 fold change); higher = less target engagement (more negative = stronger competition)
# Details: THP-1, incubation time: 4 h
# 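Further: competitive profiling in live THP-1 cells: cysteine peptides tagged with an iodoacetamide desthiobiotin (IA-DTB) probe, intensity after compound treatment relative to DMSO-treated cells.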
Target,probe-labelled cysteine peptide fold change (10 µM),probe-labelled cysteine peptide fold change (50 µM)
ERO1B_Q86YB8_207_VWNSIYEENCFKPR (UniProt Q86YB8),-0.0491,0.025
DOCK7_Q96N67_1710_SNHAEAAQCLVHSAALVAEYLSMLEDRK (UniProt Q96N67),-0.222,0.118
DOK2_O60496_36_FGASLYGGSDCALAR (UniProt O60496),0.0709,-0.165
EEF1A1_P68104_411_FLKSGDAAIVDMVPGKPMCVESFSDYPPLGR (UniProt P68104),0.219,1.06
DOK1_Q99704_115_SHLLAADAPSSAAWVQTLCR (UniProt Q99704),-0.149,-0.373
ECM1_Q16610_259_TRPHWCCTR (UniProt Q16610),-0.169,-0.393
FAHD1_Q6P587_112_DVQDECK (UniProt Q6P587),-0.0678,0.0636
FANCF_Q9NPI8_89_GPVPGLANFQALGHCDVLLSLR (UniProt Q9NPI8),0.0316,-0.03
DOK3_Q7L591_133_LADCVSVLPADGESCPR (UniProt Q7L591),0.185,-0.0799
EPB41L1_Q9H4G0_111_VTLLDASEYECEVEK (UniProt Q9H4G0),-0.0494,-0.235
DUS1L_Q6P1R4_146_LSVPVTCK (UniProt Q6P1R4),0.115,-0.154
ELP2_Q6IA86_38_GLLAFGTSCSVVLYDPLKR (UniProt Q6IA86),-0.0431,-0.0923
FAM126A_Q9BYI3_371_AASSTSQSGLSNSSHNCSNKPSIGK (UniProt Q9BYI3),-0.311,-1.19
DYNC1H1_Q14204_2454+2466_CLGSLFSMLHQACR (UniProt Q14204),0.117,0.0497
DUSP3_P51452_124_VLVHCR (UniProt P51452),-0.0219,-0.0123
ELAC2_Q9BQ52_374_FGPDTQHLVLNENCASVHNLR (UniProt Q9BQ52),0.0447,-0.106
ERGIC3_Q9Y282_145_VEVTVFDPDSLDPDRCESCYGAEAEDIK (UniProt Q9Y282),0.46,0.61
EIF3D_O15371_375_CEHDGVMTGANGEVSFINIK (UniProt O15371),0.0105,-0.0373
FBXO3_Q9UK99_324_ACQLDSR (UniProt Q9UK99),-0.108,-0.312

Target,probe-labelled cysteine peptide fold change (10 µM),probe-labelled cysteine peptide fold change (50 µM)
EPRS_P07814_856_INEAVECLLSLK (UniProt P07814),-0.0271,-0.0672
DPF2_Q92785_53_LPFLDSQTGVAQSNCYIWMEK (UniProt Q92785),0.202,0.23
EDEM3_Q9BZQ6_82_LGNQVLEMFDHAYGNYMEHAYPADELMPLTCR (UniProt Q9BZQ6),0.0949,0.28
EIPR1_Q53HC9_247_QYYLASCGDDCK (UniProt Q53HC9),-0.161,-0.568
EIF1_P41567_94_NICQFLVEIGLAKDDQLK (UniProt P41567),0.185,-1.67
FECH_P22830_395_ALADLVHSHIQSNELCSK (UniProt P22830),-0.103,-0.0993
EHMT1_Q9H9B1_978_EGETPLQCASLNSQVWSALQMSK (UniProt Q9H9B1),0.0982,-0.0574
DOP1B_Q9Y3R5_2199_WAFIPEVDTEGPAFLSDVEENHQECKPHTVR (UniProt Q9Y3R5),-0.308,-0.13
DYNC1LI2_O43237_104_CNVWILDGDLYHK<|>DYNC1LI1_Q9Y6G9_117_CNVWILDGDLYHK (UniProt Q9Y6G9+O43237),0.0463,0.0772
FASN_P49327_1459_AINCATSGVVGLVNCLR (UniProt P49327),-0.0766,-0.241
EHHADH_Q08426_559+566_YCPIPDVLCELGR (UniProt Q08426),-0.345,0.0389
EGLN1_Q9GZT9_42_SSFYCCK (UniProt Q9GZT9),-0.0734,-0.316
FAM120A_Q9NZB2_1103_TCNTNPHLNALSTDSACR (UniProt Q9NZB2),-0.0112,-0.0512
FABP5_Q01469_43+47_KMGAMAKPDCIITCDGK (UniProt Q01469),-0.14,-1.09
EZH2_Q15910_695_FANHSVNPNCYAK (UniProt Q15910),0.0117,-0.0181
EXOC5_O00471_254_NDIFEDAGILCQR (UniProt O00471),0.0908,0.214
ELOB_Q15370_60_TLGECGFTSQTAR (UniProt Q15370),-0.131,0.13
ERO1A_Q96HE7_85+94_RPCPFWNDISQCGR (UniProt Q96HE7),-0.0192,0.276
FBXO5_Q9UKT4_95_LSCIGSPIVSPR (UniProt Q9UKT4),-0.176,-0.434

Target,probe-labelled cysteine peptide fold change (10 µM),probe-labelled cysteine peptide fold change (50 µM)
EFTUD2_Q15029_468+476_IEHTYTGGVDSDLGEAMSDCDPDGPLMCHTTK (UniProt Q15029),-0.351,-0.0991
EED_O75530_330_SCENAIVCWKPGK (UniProt O75530),0.154,-0.0247
EIF3I_Q13347_120_QMGYQCFVSFFDLRDPSQIDNNEPYMK (UniProt Q13347),0.106,-0.0857
FARS2_O95363_413_TSHCYR (UniProt O95363),0.0806,0.235
FANCA_O15360_69_SHQDLNALLLEVEGPLCK (UniProt O15360),-0.401,-0.59
EEF1A1_P68104_234_DGNASGTTLLEALDCILPPTRPTDK (UniProt P68104),-0.00679,0.166
EDC3_Q96F86_137_SQDVAVSPQQQQCSK (UniProt Q96F86),0.148,-0.304
FASN_P49327_2468_TGGAYGEDLGADYNLSQVCDGK (UniProt P49327),0.13,-0.536
FAM111A_Q96PZ2_181_ASTECVK (UniProt Q96PZ2),-0.208,0.147
EHHADH_Q08426_623_CLYSLINEAFR (UniProt Q08426),0.466,0.251
EML2_O95834_203_CSNEAVLVATFHPTDPTVLITCGK (UniProt O95834),0.0448,0.0349
FEM1A_Q9BSK4_124_AACFDGHLEVVR (UniProt Q9BSK4),0.0849,-0.115
EIF3B_P55884_515_NLFNVVDCK (UniProt P55884),0.059,0.139
ERI1_Q8IV48_243_FLNIQCQLSR (UniProt Q8IV48),0.0182,-0.0572
EIF2B4_Q9UI10_266_LKPYMSFLTQCRPLSASMHNAIK (UniProt Q9UI10),-0.0787,0.0593
EIF3B_P55884_527_NGDYLCVK (UniProt P55884),0.0838,0.0137
ENG_P17813_516_GNCVSLLSPSPEGDPR (UniProt P17813),-0.024,0.0976
FAM192A_Q9GZU8_44_KPEDPEECPEEVYDPR (UniProt Q9GZU8),0.0522,-0.0432
